{"source": "the supplement of paper PMC3334620", "note": "Whole data set: some 33,000 sequences, median “E-score (-0.5 to 0.5)” near -0.056, cut for the highest 2% near 0.38. Some of the results follow."}
{"molecular_target": "Stb4 (UniProt P50104)", "assay": "PBM E-score (8-mer binding enrichment) (E-score (-0.5 to 0.5)); higher = stronger / more preferred TF binding; most listed sequences are background and not binding sites", "details": "protein concentration: 200 nM; construct: GST-DNA-binding domain", "method_in_brief": "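GST-tagged yeast TFs (full-length or DNA-binding domain) were made by PURExpress in vitro transcription/translation and applied at about 100-200 nM to universal all-10-mer Agilent arrays. The arrays were made double-stranded by primer extension, on fresh or once-stripped slides. Bound protein was detected with fluorescent anti-GST, and scans were normalised with masliner. Each ungapped eight-base word, pooled with its reverse complement, received an E-score (modified Wilcoxon-Mann-Whitney statistic) from the Universal PBM Analysis Suite.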"}
{"sequence": "CGAAGTTA", "PBM E-score": 0.112}
{"sequence": "AAAGCGGC", "PBM E-score": 0.196}
{"sequence": "AGACGTGG", "PBM E-score": -0.0737}
{"sequence": "ACTTTAAA", "PBM E-score": 0.194}
{"sequence": "AGTGCTCA", "PBM E-score": -0.348}
{"sequence": "GGGGACCA", "PBM E-score": -0.024}
{"sequence": "AGTGTTCC", "PBM E-score": 0.23}
{"sequence": "CCATGCAC", "PBM E-score": -0.202}
{"sequence": "CACCGAGC", "PBM E-score": 0.295}
{"sequence": "GGTATACC", "PBM E-score": 0.261}
{"sequence": "ACTTTTCC", "PBM E-score": 0.246}
{"sequence": "TGTTGCAA", "PBM E-score": -0.00184}
{"sequence": "ATAGAGAG", "PBM E-score": -0.17}
{"sequence": "TATGAGCA", "PBM E-score": -0.223}
{"sequence": "GAATTCGA", "PBM E-score": 0.0324}
{"sequence": "CTTATGAC", "PBM E-score": 0.0527}
{"sequence": "AGCATGTA", "PBM E-score": -0.274}
{"sequence": "GCTGAGAA", "PBM E-score": -0.3}
{"sequence": "CGTTATTC", "PBM E-score": -0.0121}
{"sequence": "TATGAGAA", "PBM E-score": -0.23}
{"sequence": "AGGAACAT", "PBM E-score": -0.223}
{"sequence": "AGAAACTA", "PBM E-score": -0.0858}
{"sequence": "CTCAGCTA", "PBM E-score": -0.197}
{"sequence": "CAATTCAC", "PBM E-score": -0.0549}
{"sequence": "TGAGCACA", "PBM E-score": -0.193}
{"sequence": "ACGTACCT", "PBM E-score": -0.133}
{"sequence": "CCTCACGC", "PBM E-score": -0.0898}
{"sequence": "AATTCCGT", "PBM E-score": 0.31}
{"sequence": "CCCCGACA", "PBM E-score": 0.16}
{"sequence": "ACGCATGA", "PBM E-score": 0.00876}
{"sequence": "CGGTGCAA", "PBM E-score": 0.0798}
{"sequence": "CTCACCAG", "PBM E-score": -0.217}
{"sequence": "ACCAAGTC", "PBM E-score": -0.0444}
{"sequence": "TGCCGCAA", "PBM E-score": 0.135}
{"sequence": "GCGACGCA", "PBM E-score": -0.235}
{"sequence": "TGTACTAA", "PBM E-score": -0.148}
{"sequence": "ACCATGGA", "PBM E-score": -0.0808}
{"sequence": "CGTGTCTA", "PBM E-score": 0.015}
{"sequence": "GCGTGGAC", "PBM E-score": -0.107}
{"sequence": "ACGCGAAC", "PBM E-score": -0.187}
{"sequence": "GTGGTCAA", "PBM E-score": -0.189}
{"sequence": "GAAATACA", "PBM E-score": -0.149}
{"sequence": "CGAGATAC", "PBM E-score": 0.163}
{"sequence": "CTCTGGGA", "PBM E-score": -0.232}
{"sequence": "AGTGGGCA", "PBM E-score": -0.0117}
{"sequence": "AGTCCACC", "PBM E-score": -0.0819}
{"sequence": "AAGAAGAG", "PBM E-score": -0.064}
{"sequence": "GATCAATA", "PBM E-score": -0.0388}
{"sequence": "CAAGTAGC", "PBM E-score": -0.264}
{"sequence": "ATAATTCG", "PBM E-score": 0.0689}
{"sequence": "CGTCCACG", "PBM E-score": -0.0192}
{"sequence": "AGCTTTTA", "PBM E-score": -0.0101}
{"sequence": "CGGGCTAC", "PBM E-score": 0.131}
{"sequence": "CTAACTGA", "PBM E-score": -0.0828}
{"sequence": "CGTGACTC", "PBM E-score": -0.101}
{"sequence": "ATCAAAAA", "PBM E-score": 0.00924}
{"sequence": "GATATCCA", "PBM E-score": -0.0589}
{"sequence": "CGTCACAC", "PBM E-score": -0.0041}
{"sequence": "CCCTCCAC", "PBM E-score": -0.191}
{"sequence": "CAGCAGGG", "PBM E-score": -0.243}
{"sequence": "ACAACTGG", "PBM E-score": -0.0467}
{"sequence": "TTCTAGAA", "PBM E-score": -0.0493}
{"sequence": "ACGGGTCC", "PBM E-score": 0.214}
{"sequence": "ATTACCAG", "PBM E-score": -0.105}
{"sequence": "ACATCTCA", "PBM E-score": -0.113}
{"sequence": "ATAAGACG", "PBM E-score": -0.112}
{"sequence": "ACCGCGCG", "PBM E-score": 0.136}
{"sequence": "TATCCTGA", "PBM E-score": -0.0875}
{"sequence": "GCACAGGC", "PBM E-score": -0.108}
{"sequence": "CAGACGGC", "PBM E-score": -0.0269}
{"sequence": "AGCAGGCG", "PBM E-score": -0.216}
{"sequence": "CGGGCCGC", "PBM E-score": 0.309}
{"sequence": "GACGTTGA", "PBM E-score": -0.00692}
{"sequence": "AACATTAG", "PBM E-score": -0.229}
{"sequence": "TACAAAAA", "PBM E-score": -0.127}
{"sequence": "AATATGTG", "PBM E-score": 0.0136}
{"sequence": "CGTCAAAG", "PBM E-score": -0.163}
{"sequence": "CCTTATAA", "PBM E-score": 0.104}
{"sequence": "GTGTGGGA", "PBM E-score": 0.0105}
{"sequence": "CGAAAACG", "PBM E-score": 0.0816}
{"sequence": "CATTCATC", "PBM E-score": -0.144}
{"sequence": "TCAGCGGA", "PBM E-score": 0.192}
{"sequence": "CATTTACC", "PBM E-score": 0.00883}
{"sequence": "AGCATGAG", "PBM E-score": -0.175}
{"sequence": "CGTTTCAG", "PBM E-score": 0.0363}
{"sequence": "CACAGTCA", "PBM E-score": -0.221}
{"sequence": "ACGTACCC", "PBM E-score": 0.108}
{"sequence": "AGCATACC", "PBM E-score": -0.0852}
{"sequence": "CCAAAAGC", "PBM E-score": -0.105}
{"sequence": "CAGGCATC", "PBM E-score": -0.227}
{"sequence": "AGGATTAT", "PBM E-score": -0.0938}
{"sequence": "ATCGAACC", "PBM E-score": 0.089}
{"sequence": "ACAACTCG", "PBM E-score": 0.0391}
{"sequence": "ACAGTACC", "PBM E-score": -0.0799}
{"sequence": "CGGATGGA", "PBM E-score": 0.364}
{"sequence": "GCCTTATA", "PBM E-score": 0.0142}
{"sequence": "AATGATCT", "PBM E-score": -0.12}
{"sequence": "AGACGACC", "PBM E-score": -0.235}
{"sequence": "AGCGACCT", "PBM E-score": -0.144}
{"sequence": "GCTAGTCC", "PBM E-score": -0.0339}
{"sequence": "AATTCTCA", "PBM E-score": -0.149}
{"sequence": "AAAGAAAG", "PBM E-score": -0.00387}
{"sequence": "AATAGCAT", "PBM E-score": -0.135}
{"sequence": "AGCTCTGA", "PBM E-score": -0.288}
{"sequence": "AACCGCGC", "PBM E-score": 0.051}
{"sequence": "GAAGTTCA", "PBM E-score": 0.0304}
{"sequence": "AACCAGGT", "PBM E-score": -0.0413}
{"sequence": "ACTTTCGC", "PBM E-score": -0.239}
{"sequence": "AGGGCCGC", "PBM E-score": -0.21}
{"sequence": "AGGTGGAG", "PBM E-score": -0.224}
{"sequence": "GAAACAAA", "PBM E-score": -0.112}
{"sequence": "CTAGCTAG", "PBM E-score": -0.333}
{"sequence": "CGATGCGA", "PBM E-score": -0.0109}
{"sequence": "GCGCCAGC", "PBM E-score": -0.0419}
{"sequence": "ATCCCGGA", "PBM E-score": 0.344}
{"sequence": "CAACCAGC", "PBM E-score": -0.229}
{"sequence": "ACAGGGGG", "PBM E-score": -0.302}
{"sequence": "AAATGGAT", "PBM E-score": -0.158}
{"sequence": "CGAGTATC", "PBM E-score": 0.214}
{"sequence": "CCGGTTGA", "PBM E-score": 0.264}
{"sequence": "TGCAAAAA", "PBM E-score": -0.148}
{"sequence": "GGGGATTA", "PBM E-score": -0.0027}
{"sequence": "ATCGTGGC", "PBM E-score": -0.273}
{"sequence": "ATTTCTCG", "PBM E-score": 0.232}
{"sequence": "AGGAGCGC", "PBM E-score": -0.153}
{"sequence": "GGCTGATA", "PBM E-score": 0.154}
{"sequence": "GAATTACC", "PBM E-score": 0.174}
{"sequence": "GGCTGCCC", "PBM E-score": 0.0668}
{"sequence": "GTACGGAC", "PBM E-score": 0.0993}
{"sequence": "ACGAGCGG", "PBM E-score": 0.0575}
{"sequence": "ACACGCGG", "PBM E-score": 0.157}
{"sequence": "GCTACACC", "PBM E-score": -0.173}
{"sequence": "ATATAGCA", "PBM E-score": -0.202}
{"sequence": "CAAACCAA", "PBM E-score": -0.225}
{"sequence": "ACATGTAG", "PBM E-score": -0.168}
{"sequence": "GCCTGGAA", "PBM E-score": -0.25}
{"sequence": "GATCGGAC", "PBM E-score": 0.392}
{"sequence": "GTTACCCA", "PBM E-score": -0.0577}
{"sequence": "ATATGCAC", "PBM E-score": -0.0313}
{"sequence": "AGGTGGTC", "PBM E-score": -0.224}
{"sequence": "AAGTATCA", "PBM E-score": -0.182}
{"sequence": "ATCGTTGG", "PBM E-score": -0.213}
{"sequence": "ACCTGAGG", "PBM E-score": -0.151}
{"sequence": "GCGATAGA", "PBM E-score": -0.267}
{"sequence": "AAGATTAC", "PBM E-score": 0.122}
{"sequence": "ATTGCATA", "PBM E-score": -0.0112}
{"sequence": "ATGATGCA", "PBM E-score": -0.165}
{"sequence": "AACACGAG", "PBM E-score": -0.107}
{"sequence": "CCGCAGAG", "PBM E-score": -0.0162}
{"sequence": "ACACAAAT", "PBM E-score": -0.0343}
{"sequence": "AAGCATGG", "PBM E-score": -0.0719}
{"sequence": "ACTGATAT", "PBM E-score": 0.00956}
{"sequence": "AGCTAACC", "PBM E-score": -0.00838}
{"sequence": "CGCTACCC", "PBM E-score": 0.0897}
{"sequence": "CAACACTG", "PBM E-score": -0.267}
{"sequence": "CGTTCAGA", "PBM E-score": -0.0795}
{"sequence": "CGGCGATA", "PBM E-score": 0.277}
{"sequence": "AGTACAAA", "PBM E-score": -0.0756}
{"sequence": "AAACTGCC", "PBM E-score": 0.0655}
{"sequence": "CGATAACA", "PBM E-score": 0.205}
{"sequence": "GACGATAA", "PBM E-score": -0.00034}
{"sequence": "AGCGGCAT", "PBM E-score": 0.113}
{"sequence": "AAATTTAT", "PBM E-score": 0.0269}
{"sequence": "CCGACTAG", "PBM E-score": 0.232}
{"sequence": "CTTAATGA", "PBM E-score": -0.246}
{"sequence": "TTCACCAA", "PBM E-score": -0.0739}
{"sequence": "GTCCAGGA", "PBM E-score": -0.301}
{"sequence": "GCATTTCC", "PBM E-score": 0.117}
{"sequence": "AATCACGG", "PBM E-score": 0.241}
{"sequence": "GATCTTCC", "PBM E-score": 0.285}
{"sequence": "AGTATCAC", "PBM E-score": -0.0927}
{"sequence": "ATGAGGAG", "PBM E-score": -0.186}
